Laboratory results: paper PMC4336329 (PLoS ONE, 2015)
Out of some 310,000 compounds screened, about 2,200 (0.71%) showed an effect of 50% or more. Effects have a minus sign here. This is one part of the list.

target: human ether-à-go-go-related gene (hERG) potassium channel (human, UniProt Q12809); test: primary screen, population patch clamp on CHO cells stably expressing hERG
Sequence (Q12809 whole entry, looked up): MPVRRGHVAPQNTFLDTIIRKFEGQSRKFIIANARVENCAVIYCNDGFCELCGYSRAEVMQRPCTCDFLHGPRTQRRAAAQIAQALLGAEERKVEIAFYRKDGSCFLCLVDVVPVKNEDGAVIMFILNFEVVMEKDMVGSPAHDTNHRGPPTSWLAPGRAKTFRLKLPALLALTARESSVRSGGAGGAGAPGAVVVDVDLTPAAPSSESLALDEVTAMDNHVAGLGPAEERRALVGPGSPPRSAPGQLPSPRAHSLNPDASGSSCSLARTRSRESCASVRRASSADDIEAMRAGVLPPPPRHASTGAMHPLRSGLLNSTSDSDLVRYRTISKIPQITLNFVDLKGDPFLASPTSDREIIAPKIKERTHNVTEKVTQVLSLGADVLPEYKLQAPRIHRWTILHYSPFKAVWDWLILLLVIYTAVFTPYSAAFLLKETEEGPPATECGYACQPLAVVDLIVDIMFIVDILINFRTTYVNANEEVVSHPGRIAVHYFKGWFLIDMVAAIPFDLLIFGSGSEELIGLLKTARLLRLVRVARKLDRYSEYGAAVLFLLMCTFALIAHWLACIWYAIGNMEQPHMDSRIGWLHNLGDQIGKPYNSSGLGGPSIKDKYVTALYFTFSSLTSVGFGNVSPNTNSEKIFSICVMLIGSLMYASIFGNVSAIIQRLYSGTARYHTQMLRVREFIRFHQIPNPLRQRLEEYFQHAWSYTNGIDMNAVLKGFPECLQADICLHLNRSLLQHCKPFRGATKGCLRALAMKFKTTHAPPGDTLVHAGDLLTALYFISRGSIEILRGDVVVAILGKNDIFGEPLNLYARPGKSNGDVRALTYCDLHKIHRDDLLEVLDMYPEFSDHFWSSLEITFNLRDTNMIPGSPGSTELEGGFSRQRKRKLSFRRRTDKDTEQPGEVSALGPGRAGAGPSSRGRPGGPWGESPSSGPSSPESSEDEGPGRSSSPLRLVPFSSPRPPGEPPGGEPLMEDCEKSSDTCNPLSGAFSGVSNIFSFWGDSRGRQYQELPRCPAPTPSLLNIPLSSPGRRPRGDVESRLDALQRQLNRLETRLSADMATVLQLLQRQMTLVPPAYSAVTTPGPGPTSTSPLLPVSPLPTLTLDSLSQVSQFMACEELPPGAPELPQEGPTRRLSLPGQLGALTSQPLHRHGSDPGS

Compared with `O=C(CSc1cccc2cccnc12)OCC(=O)c1ccc(Br)cc1`, `CN(C)S(=O)(=O)c1cccc(NC(=O)COC(=O)COc2ccc(Br)cc2)c1` is lower in “hERG current change (%, negative = inhibition) at 1uM” value: -3.27% for the first, -6.16% for the second.

Compared with `COc1ccc(NC(=O)CSc2nccn2Cc2ccccc2)cc1`, `COc1ccc(Cn2c(CCC(=O)Nc3ccc(CC#N)cc3)nc3cccnc32)cc1` is lower in “hERG current change (%, negative = inhibition) at 1uM” value: 11.6% for the first, 1.71% for the second.

Going from `O=C(O)CC(c1ccccc1)N1C(=O)c2cccc([N+](=O)[O-])c2C1=O` (stereo not shown) to `Cc1cc(C)cc(OCC(=O)NNC(=O)CCN2C(=O)c3ccccc3C2=O)c1`, the “hERG current change (%, negative = inhibition) at 1uM” value falls from 13.8% to 11.4%.

Going from `Cc1cc(C)c(Cn2c(=O)n(CCCC(=O)NCc3ccco3)c(=O)c3ccccc32)c(C)c1` to `COc1cccc(CNC(=O)CCCc2c[nH]c3ccccc23)c1`, the “hERG current change (%, negative = inhibition) at 1uM” value falls from 12% to -0.935%.

Compared with `CCN(CC)C(=O)Oc1ccc2c(c1)O/C(=C\c1ccco1)C2=O`, `COc1ccc(CCNC(=O)C(=O)Nc2ccc3c(c2)OCCO3)cc1OC` is higher in “hERG current change (%, negative = inhibition) at 1uM” value: 13.6% for the first, 14.4% for the second.

Going from `Cc1cc(C)n(CC(O)Cn2c3ccccc3c3ccccc32)n1.[Cl-]` (stereo not shown) to `COCCNC(=O)Cn1cc(/C=C2\C(=O)NC(=O)N(c3ccccc3F)C2=O)c2ccccc21`, the “hERG current change (%, negative = inhibition) at 1uM” value rises from -0.723% to 9.47%.

First: Cc1cnc(C(=O)OCC(=O)Nc2cccc(Cl)c2)cn1
Second: COc1ccccc1NC(=O)COC(=O)c1ccc2c(c1)OCCO2
The “hERG current change (%, negative = inhibition) at 1uM” value of the first is higher: 15.1% for the first, 9.82% for the second.

Compared with `CC1CCc2c(sc3ncnc(SC(C)C(=O)NCC4CCCO4)c23)C1` (stereo not shown), `COc1cccc(SCc2noc(C(=O)NCC3CCCO3)c2C(=O)O)c1` (stereo not shown) is higher in “hERG current change (%, negative = inhibition) at 1uM” value: 10.7% for the first, 12.4% for the second.

First: COCCCNC(=O)CCCC(=O)NCCCOC
Second: Cc1cccc(CCNC(=O)CCc2nnc(CCc3ccccc3)o2)n1
The “hERG current change (%, negative = inhibition) at 1uM” value of the first is higher: 17.7% for the first, 12.1% for the second.

Going from `Cc1ccc(C(C(=O)NC2CCCC2)N(C(=O)c2csnn2)c2cccc(F)c2)o1` (stereo not shown) to `CCC(NC(=S)NC1CCCCC1)c1ccc(C(C)C)cc1` (stereo not shown), the “hERG current change (%, negative = inhibition) at 1uM” value falls from 15.4% to 11.3%.

Compared with `Cc1ccc(CNCC(O)(c2ccccc2)c2ccccc2)cc1`, `O=C(COC(=O)CNS(=O)(=O)c1c(Cl)cccc1Cl)Nc1ccccc1Sc1ccccc1` is lower in “hERG current change (%, negative = inhibition) at 1uM” value: 10.8% for the first, 9.73% for the second.

First: Cc1ccccc1N1CCN(S(=O)(=O)C[C@]23CCC(CC2NC(=O)[C@@H](N)CCS(C)(=O)=O)C3(C)C)CC1.Cl (stereo partly shown)
Second: Cc1nn(CC(=O)N2CCN(S(=O)(=O)c3ccccc3)CC2)c(C)c1[N+](=O)[O-]
The “hERG current change (%, negative = inhibition) at 1uM” value of the first is higher: 13% for the first, 5.34% for the second.

First: CC(NC(=O)c1ccc(S(=O)(=O)C(F)F)cc1)c1ccccc1 (stereo not shown)
Second: COc1cccc(C(=O)NNC(=O)c2ccccc2)c1
The “hERG current change (%, negative = inhibition) at 1uM” value of the first is higher: 8.61% for the first, 7.51% for the second.

Going from `CC(=O)Nc1ccc(S(=O)(=O)N2CCc3c(Cl)cccc3C2)cc1` to `COc1ccc(Cl)cc1S(=O)(=O)Nc1cccc(C(=O)O)c1`, the “hERG current change (%, negative = inhibition) at 1uM” value falls from 11.5% to 5.17%.

Going from `CC(C)(C)NC(=O)C(c1ccc(O)cc1)N(C(=O)Cn1nnc(-c2ccc(F)cc2)n1)c1ccccc1F` (stereo not shown) to `CN(C)c1ccc(NC(=O)COC(=O)Cn2nnc3ccccc32)cc1`, the “hERG current change (%, negative = inhibition) at 1uM” value falls from 9.27% to -6.97%.

First: Clc1ccc(OCc2cc(-c3ccccc3)no2)c(Cl)c1
Second: Cc1ccc2nnnc(-c3ccccc3)c2c1
The “hERG current change (%, negative = inhibition) at 1uM” value of the first is higher: 12.3% for the first, 2.74% for the second.

Going from `CCC(NC(=O)OC(C)(C)C)C(=O)Oc1cc(C)cc2oc(=O)c3c(c12)CCC3` (stereo not shown) to `COc1ccc(CNC(=O)COC(=O)c2ccc(C)c(S(=O)(=O)N3CCOCC3)c2)cc1OC`, the “hERG current change (%, negative = inhibition) at 1uM” value rises from -4.06% to 7.56%.

First: Cc1noc(C)c1COC(=O)Cc1ccc(Cl)c(Cl)c1
Second: CCOC(=O)c1[nH]c(C)c(C(=O)Nc2cc(Cl)ccc2C)c1C
The “hERG current change (%, negative = inhibition) at 1uM” value of the first is higher: 15.4% for the first, 10.2% for the second.

First: Cl.N=c1c2c(n(Cc3ccc(Cl)cc3)c3c1CCC3)CCC2
Second: CC(C)c1c(O)nc(SCc2ccc(F)cc2)[nH]c1=O
The “hERG current change (%, negative = inhibition) at 1uM” value of the first is lower: 8.99% for the first, 18.5% for the second.

Compared with `Cc1cc(C(=O)CSc2nnc(NCc3ccccc3)s2)c(C)n1C`, `Cn1c(CNC(=O)c2ccco2)nnc1SCC(=O)N1CCN(c2ccccc2)CC1` is higher in “hERG current change (%, negative = inhibition) at 1uM” value: 7.29% for the first, 12.4% for the second.

Going from `Cc1cc(C)n(S(=O)(=O)c2cccc(Cl)c2Cl)n1` to `CCc1nnc(NC(=O)c2ccc(Br)c(S(=O)(=O)N3CCOCC3)c2)s1`, the “hERG current change (%, negative = inhibition) at 1uM” value rises from -2.48% to 20%.

First: CCN1CCN(C(=O)/C(=C/c2cccs2)NC(=O)c2ccc(C)c(C)c2)CC1
Second: COC(=O)CN1C(=O)C(C)(C)Oc2ccc(C(=O)NC3CC3)cc21
The “hERG current change (%, negative = inhibition) at 1uM” value of the first is lower: -83.5% for the first, 2.52% for the second.

Compared with `CCN(Cc1ccccc1)S(=O)(=O)c1cc(C(=O)c2c(N)n(C)c(=O)n(C)c2=O)ccc1OC`, `O=C(O)CCC(=O)N1CCc2cc(S(=O)(=O)N3CCC(Cc4ccccc4)CC3)ccc21` is higher in “hERG current change (%, negative = inhibition) at 1uM” value: 5.77% for the first, 9.88% for the second.

Going from `Cc1ccc(NC2=C(Cl)C(=O)OC2OC(=O)c2ccc(C)cc2)cc1` (stereo not shown) to `COC(=O)C1=C(C)NC(=O)CC1c1ccc(C(=O)OC)cc1` (stereo not shown), the “hERG current change (%, negative = inhibition) at 1uM” value rises from 0.499% to 11.8%.

First: COC(=O)C1=CN(Cc2ccc(C)cc2)C=C(C(=O)OC)C1c1cc(OC)c(OC)c(OC)c1
Second: COc1ccc(-c2nnc(SCc3nc4ccccc4s3)n2C(C)C)cc1
The “hERG current change (%, negative = inhibition) at 1uM” value of the first is higher: -2.32% for the first, -16.1% for the second.

First: CCOC(=O)c1cncc(C#CCO)c1
Second: CCOC(=O)/C(=C/C=C1\Sc2cc(OCC)c(OCC)cc2N1CC)C(C)=O
The “hERG current change (%, negative = inhibition) at 1uM” value of the first is lower: 6.47% for the first, 9.18% for the second.

Going from `Cc1ccc(/C(O)=C/C(=O)C(=O)NC23CC4CC(CC(C4)C2)C3)cc1` to `COc1ccc(S(=O)(=O)c2c(N)n(Cc3ccco3)c3nc4ccccc4nc23)cc1`, the “hERG current change (%, negative = inhibition) at 1uM” value falls from 5.19% to -2.24%.

`c1cncc(-c2nn[nH]n2)c1` was tested, and the “hERG current change (%, negative = inhibition) at 1uM” value was 1.97%.
